Experimental data as given in article PMC9911399, “Two distinct binding modes provide the RNA-binding protein RbFox with extraordinary sequence specificity”.
Changes are numbered by the printed parent chain; changes in the protein carry UniProt numbers. The list shows a part of the results.

T1: RBFOX1 RRM RbFoxmut (Fox-RRM*) (Homo sapiens, UniProt Q9NWB1 109-208, R118D;E147R;N151S;E152T)
T1 sequence: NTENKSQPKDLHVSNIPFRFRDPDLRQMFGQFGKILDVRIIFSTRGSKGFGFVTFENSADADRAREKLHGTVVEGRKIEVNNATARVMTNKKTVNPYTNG

B1: UCUUGUC (DNA:RNA)
RNA: GGGAGACCGGAAUUCAGAUUGUCCUCUUGUCUUAAAUCCCGUCGUAGCCACCA
DNA 1: CAATCTGAATTCCGGTCTCCC
DNA 2: TGGTGGCTACGACGGGATT
B2: UGUGGAA (DNA:RNA)
RNA: B1 RNA with C26G, U28G, U30A, C31A
DNA 1: CAATCTGAATTCCGGTCTCCC
DNA 2: TGGTGGCTACGACGGGATT
B3: GGAGCAU (DNA:RNA)
RNA: GGGAGACCGGAAUUCAGAUUGUCCGGAGCAUUUAAAUCCCGUCGUAGCCACCA
DNA 1: CAATCTGAATTCCGGTCTCCC
DNA 2: TGGTGGCTACGACGGGATT
B4: GCUAUAA (DNA:RNA)
RNA: B3 RNA with G26C, A27U, G28A, C29U, U31A
DNA 1: CAATCTGAATTCCGGTCTCCC
DNA 2: TGGTGGCTACGACGGGATT
B5: UUCUUUA (DNA:RNA)
RNA: B1 RNA with C26U, U27C, G29U, C31A
DNA 1: CAATCTGAATTCCGGTCTCCC
DNA 2: TGGTGGCTACGACGGGATT
B6: CCUUCUA (DNA:RNA)
RNA: B1 RNA with U25C, G29C, C31A
DNA 1: CAATCTGAATTCCGGTCTCCC
DNA 2: TGGTGGCTACGACGGGATT
B7: CUCUUUA (DNA:RNA)
RNA: B1 RNA with U25C, C26U, U27C, G29U, C31A
DNA 1: CAATCTGAATTCCGGTCTCCC
DNA 2: TGGTGGCTACGACGGGATT
B8: GUUAUAU (DNA:RNA)
RNA: B3 RNA with G26U, A27U, G28A, C29U
DNA 1: CAATCTGAATTCCGGTCTCCC
DNA 2: TGGTGGCTACGACGGGATT
B9: CGUCAGU (DNA:RNA)
RNA: B3 RNA with G25C, A27U, G28C, C29A, A30G
DNA 1: CAATCTGAATTCCGGTCTCCC
DNA 2: TGGTGGCTACGACGGGATT
B10: CACCCGC (DNA:RNA)
RNA: B3 RNA with G25C, G26A, A27C, G28C, A30G, U31C
DNA 1: CAATCTGAATTCCGGTCTCCC
DNA 2: TGGTGGCTACGACGGGATT
B11: UAUCAUG (DNA:RNA)
RNA: B1 RNA with C26A, U28C, G29A, C31G
DNA 1: CAATCTGAATTCCGGTCTCCC
DNA 2: TGGTGGCTACGACGGGATT
B12: GUGGAGU (DNA:RNA)
RNA: B3 RNA with G26U, A27G, C29A, A30G
DNA 1: CAATCTGAATTCCGGTCTCCC
DNA 2: TGGTGGCTACGACGGGATT
B13: GGGGAAA (DNA:RNA)
RNA: B3 RNA with A27G, C29A, U31A
DNA 1: CAATCTGAATTCCGGTCTCCC
DNA 2: TGGTGGCTACGACGGGATT
B14: GGACUUA (DNA:RNA)
RNA: B3 RNA with G28C, C29U, A30U, U31A
DNA 1: CAATCTGAATTCCGGTCTCCC
DNA 2: TGGTGGCTACGACGGGATT
B15: UCUACCC (DNA:RNA)
RNA: B1 RNA with U28A, G29C, U30C
DNA 1: CAATCTGAATTCCGGTCTCCC
DNA 2: TGGTGGCTACGACGGGATT
B16: CACUCGA (DNA:RNA)
RNA: B3 RNA with G25C, G26A, A27C, G28U, A30G, U31A
DNA 1: CAATCTGAATTCCGGTCTCCC
DNA 2: TGGTGGCTACGACGGGATT
B17: CCACGAU (DNA:RNA)
RNA: B3 RNA with G25C, G26C, G28C, C29G
DNA 1: CAATCTGAATTCCGGTCTCCC
DNA 2: TGGTGGCTACGACGGGATT
B18: GUACUUA (DNA:RNA)
RNA: B3 RNA with G26U, G28C, C29U, A30U, U31A
DNA 1: CAATCTGAATTCCGGTCTCCC
DNA 2: TGGTGGCTACGACGGGATT
B19: CCCUCUC (DNA:RNA)
RNA: B1 RNA with U25C, U27C, G29C
DNA 1: CAATCTGAATTCCGGTCTCCC
DNA 2: TGGTGGCTACGACGGGATT
B20: CCGAAAA (DNA:RNA)
RNA: B3 RNA with G25C, G26C, A27G, G28A, C29A, U31A
DNA 1: CAATCTGAATTCCGGTCTCCC
DNA 2: TGGTGGCTACGACGGGATT
B21: ACUAUCU (DNA:RNA)
RNA: B1 RNA with U25A, U28A, G29U, U30C, C31U
DNA 1: CAATCTGAATTCCGGTCTCCC
DNA 2: TGGTGGCTACGACGGGATT
B22: CAGUAAG (DNA:RNA)
RNA: B3 RNA with G25C, G26A, A27G, G28U, C29A, U31G
DNA 1: CAATCTGAATTCCGGTCTCCC
DNA 2: TGGTGGCTACGACGGGATT
B23: UCCUGUG (DNA:RNA)
RNA: B1 RNA with U27C, C31G
DNA 1: CAATCTGAATTCCGGTCTCCC
DNA 2: TGGTGGCTACGACGGGATT
B24: ACAACCA (DNA:RNA)
RNA: B3 RNA with G25A, G26C, G28A, A30C, U31A
DNA 1: CAATCTGAATTCCGGTCTCCC
DNA 2: TGGTGGCTACGACGGGATT
B25: UCCCCCA (DNA:RNA)
RNA: B1 RNA with U27C, U28C, G29C, U30C, C31A
DNA 1: CAATCTGAATTCCGGTCTCCC
DNA 2: TGGTGGCTACGACGGGATT
B26: CACAUAC (DNA:RNA)
RNA: B3 RNA with G25C, G26A, A27C, G28A, C29U, U31C
DNA 1: CAATCTGAATTCCGGTCTCCC
DNA 2: TGGTGGCTACGACGGGATT
B27: UGAAGAA (DNA:RNA)
RNA: B3 RNA with G25U, G28A, C29G, U31A
DNA 1: CAATCTGAATTCCGGTCTCCC
DNA 2: TGGTGGCTACGACGGGATT
B28: UUAGUCC (DNA:RNA)
RNA: B3 RNA with G25U, G26U, C29U, A30C, U31C
DNA 1: CAATCTGAATTCCGGTCTCCC
DNA 2: TGGTGGCTACGACGGGATT
B29: ACAUUAA (DNA:RNA)
RNA: B3 RNA with G25A, G26C, G28U, C29U, U31A
DNA 1: CAATCTGAATTCCGGTCTCCC
DNA 2: TGGTGGCTACGACGGGATT
B30: UCCGAGA (DNA:RNA)
RNA: B1 RNA with U27C, U28G, G29A, U30G, C31A
DNA 1: CAATCTGAATTCCGGTCTCCC
DNA 2: TGGTGGCTACGACGGGATT
B31: UCAAUAC (DNA:RNA)
RNA: B1 RNA with U27A, U28A, G29U, U30A
DNA 1: CAATCTGAATTCCGGTCTCCC
DNA 2: TGGTGGCTACGACGGGATT

target: T1, RBFOX1 RRM RbFoxmut (Fox-RRM*); test: EMSA; HiTS-Eq, 1 nM pool, 10 min; buffer printed only for the single-RNA assays: 10 mM Tris pH 7.5, 150 mM NaCl, 3.4 mM EDTA, 0.001% NP-40, 30 C; details: tags: His6 N-terminal (pET28a); label: 5' 32P
Summary of the method: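 A pool of RNA with 7 randomized nucleotides, 5′-radiolabelled and with DNA-annealed flanks, was equilibrated at 1 nM for 10 min in 50 µL with purified RbFox RRM, wild type or mutant, across increasing protein concentrations. Free RNA was separated by 8% native PAGE, excised, reverse-transcribed, barcoded by PCR and sequenced. Relative association constants were obtained from read-count changes of each RNA species versus the control reaction and normalised to the cognate motif.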

Binder	binding signal
B1	0.297 KA relative to UGCAUGU
B2	0.118 KA relative to UGCAUGU
B3	0.0911 KA relative to UGCAUGU
B4	0.114 KA relative to UGCAUGU
B5	0.118 KA relative to UGCAUGU
B6	0.0885 KA relative to UGCAUGU
B7	0.113 KA relative to UGCAUGU
B8	0.118 KA relative to UGCAUGU
B9	0.112 KA relative to UGCAUGU
B10	0.0852 KA relative to UGCAUGU
B11	0.116 KA relative to UGCAUGU
B12	0.16 KA relative to UGCAUGU
B13	0.0862 KA relative to UGCAUGU
B14	0.0786 KA relative to UGCAUGU
B15	0.0616 KA relative to UGCAUGU
B16	0.131 KA relative to UGCAUGU

Binder	binding signal
B17	0.0715 KA relative to UGCAUGU
B18	0.13 KA relative to UGCAUGU
B19	0.0644 KA relative to UGCAUGU
B20	0.0828 KA relative to UGCAUGU
B21	0.0733 KA relative to UGCAUGU
B22	0.103 KA relative to UGCAUGU
B23	0.119 KA relative to UGCAUGU
B24	0.0744 KA relative to UGCAUGU
B25	0.138 KA relative to UGCAUGU
B26	0.102 KA relative to UGCAUGU
B27	0.0716 KA relative to UGCAUGU
B28	0.0962 KA relative to UGCAUGU
B29	0.124 KA relative to UGCAUGU
B30	0.0734 KA relative to UGCAUGU
B31	0.0867 KA relative to UGCAUGU
